# The list shows a part of the results. The full chains were built here from the parent and the listed change. Values near 0.05 are background.
# B1: TEV protease; numbered along this chain (parent)
# chain: MGESLFKGPRDYNPISSSICHLTNESDGHTTSLYGIGFGPFIITNKHLFRRNNGTLVVQSLHGVFKVKDTTTLQQHLVDGRDMIIIRMPKDFPPFPQKLKFREPQREERICLVTTNFQTKSMSSMVSDTSCTFPSGDGIFWKHWIQTKDGQCGSPLVSTRDGFIVGIHSASNFTNTNNYFTSVPKNFMELLTNQEAQQWVSGWRLNADSVLWGGHKVFMVKPEEPFQPVKEATQL
# Variants of: B1
# Assay: raw area under fraction-flipped curve 0-4 h after induction (AUC4h, not background-subtracted), DNA-recorder readout of cleavage of the substrate (dimensionless); higher = more cleavage of the substrate by the protease variant
# Conditions: temperature: 34 °C; time window: 0-4 h after rhamnose induction
# Procedure: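 In vivo DNA recorder in E. coli TOP10(DE3) ΔrhaA at 34 °C. Each TEVp single-site mutant (parent TEVp 0) is paired with a single-site variant of the 7-mer TEVs (canonical ENLYFQ|S). The substrate sits between flexible linkers in a Bxb1-sfGFP-TEVs-SsrA fusion, so cleavage stabilises Bxb1 and speeds flipping of a recombination array, read by NGS. The value is the raw area under the fraction-flipped curve over 0-4 h after rhamnose induction (AUC4h), with ≥20 reads per time point. It is not background-subtracted; inactive controls average about 0.047.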
# 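Further: Bxb1 expression induced with 0.2% (w/v) L-rhamnose at OD600 near 0.5, cultures sampled hourly, flipped fraction per protease–substrate barcode pair counted by paired-end Illumina sequencing.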
variant,measurement,value
L77S,area with substrate ENLYFAS,0.0685
same,area with substrate ENLYFDS,0.0611
same,area with substrate ENLYFES,0.0557
same,area with substrate ENLYFFS,0.0714
same,area with substrate ENLYFGS,0.0743
same,area with substrate ENLYFHS,0.0552
same,area with substrate ENLYFIS,0.0534
same,area with substrate ENLYFMS,0.0629
same,area with substrate ENLYFNS,0.057
same,area with substrate ENLYFPS,0.0632
same,area with substrate ENLYFRS,0.0551
same,area with substrate ENLYFSS,0.0597
same,area with substrate ENLYFTS,0.0571
same,area with substrate ENLYFVS,0.0531
same,area with substrate ENLYFWS,0.0587
same,area with substrate ENLYFYS,0.0595
D82Y,area with substrate ENLYFAS,0.0497
same,area with substrate ENLYFCS,0.0596
same,area with substrate ENLYFES,0.0602
same,area with substrate ENLYFFS,0.0677
same,area with substrate ENLYFIS,0.0587
same,area with substrate ENLYFKS,0.0519
same,area with substrate ENLYFMS,0.0638
same,area with substrate ENLYFNS,0.0504
same,area with substrate ENLYFPS,0.0703
same,area with substrate ENLYFTS,0.0533
same,area with substrate ENLYFVS,0.0514
M83W,area with substrate ENLYFAS,0.0582
same,area with substrate ENLYFDS,0.0515
same,area with substrate ENLYFFS,0.0578
same,area with substrate ENLYFIS,0.0608
same,area with substrate ENLYFKS,0.064
same,area with substrate ENLYFMS,0.0621
same,area with substrate ENLYFNS,0.0557
same,area with substrate ENLYFPS,0.065
same,area with substrate ENLYFRS,0.0561
same,area with substrate ENLYFTS,0.0545
same,area with substrate ENLYFVS,0.0525
same,area with substrate ENLYFYS,0.0638
D91A,area with substrate ENLYFAS,0.0482
same,area with substrate ENLYFCS,0.0582
same,area with substrate ENLYFDS,0.0582
same,area with substrate ENLYFFS,0.0609
same,area with substrate ENLYFHS,0.0574
same,area with substrate ENLYFIS,0.0557
same,area with substrate ENLYFKS,0.0481
same,area with substrate ENLYFLS,0.0604
same,area with substrate ENLYFMS,0.0667
same,area with substrate ENLYFPS,0.0351
same,area with substrate ENLYFTS,0.0622
D91H,area with substrate ENLYFAS,0.0664
same,area with substrate ENLYFCS,0.0619
same,area with substrate ENLYFES,0.0736
same,area with substrate ENLYFFS,0.0621
same,area with substrate ENLYFGS,0.0679
same,area with substrate ENLYFHS,0.0559
same,area with substrate ENLYFIS,0.058
same,area with substrate ENLYFKS,0.0655
same,area with substrate ENLYFLS,0.0466
same,area with substrate ENLYFMS,0.0649
same,area with substrate ENLYFPS,0.0624
same,area with substrate ENLYFRS,0.036
same,area with substrate ENLYFSS,0.0586
same,area with substrate ENLYFVS,0.0824
same,area with substrate ENLYFWS,0.0571
same,area with substrate ENLYFYS,0.0666
P94G,area with substrate ENLYFAS,0.0396
same,area with substrate ENLYFCS,0.0618
same,area with substrate ENLYFES,0.0827
same,area with substrate ENLYFFS,0.0719
same,area with substrate ENLYFGS,0.0573
same,area with substrate ENLYFIS,0.0538
same,area with substrate ENLYFKS,0.0598
same,area with substrate ENLYFMS,0.101
same,area with substrate ENLYFNS,0.0672
same,area with substrate ENLYFRS,0.0549
same,area with substrate ENLYFTS,0.0628
same,area with substrate ENLYFWS,0.0528
K98I,area with substrate ENLYFAS,0.0765
same,area with substrate ENLYFCS,0.0552
same,area with substrate ENLYFDS,0.0536
same,area with substrate ENLYFES,0.0732
same,area with substrate ENLYFFS,0.0583
same,area with substrate ENLYFGS,0.0535
same,area with substrate ENLYFIS,0.05
same,area with substrate ENLYFKS,0.0675
same,area with substrate ENLYFMS,0.0748
same,area with substrate ENLYFNS,0.042
same,area with substrate ENLYFPS,0.0571
same,area with substrate ENLYFRS,0.0664
same,area with substrate ENLYFSS,0.0569
same,area with substrate ENLYFTS,0.0645
same,area with substrate ENLYFWS,0.0543
same,area with substrate ENLYFYS,0.0616
K100E,area with substrate ENLYFAS,0.0935
same,area with substrate ENLYFES,0.0733
same,area with substrate ENLYFIS,0.0529
same,area with substrate ENLYFKS,0.0387
same,area with substrate ENLYFMS,0.0569
same,area with substrate ENLYFNS,0.0625
same,area with substrate ENLYFTS,0.0629
K100L,area with substrate ENLYFAS,0.0523
same,area with substrate ENLYFES,0.0618
same,area with substrate ENLYFFS,0.0618
same,area with substrate ENLYFHS,0.0553
same,area with substrate ENLYFIS,0.0669
same,area with substrate ENLYFKS,0.0513
same,area with substrate ENLYFMS,0.0701
same,area with substrate ENLYFPS,0.0556
same,area with substrate ENLYFTS,0.0451
same,area with substrate ENLYFVS,0.0722
K100R,area with substrate ENLYFAS,0.0553
same,area with substrate ENLYFDS,0.0633
same,area with substrate ENLYFES,0.062
same,area with substrate ENLYFFS,0.0708
same,area with substrate ENLYFHS,0.0534
same,area with substrate ENLYFKS,0.102
same,area with substrate ENLYFNS,0.0661
same,area with substrate ENLYFPS,0.0566
same,area with substrate ENLYFSS,0.0596
same,area with substrate ENLYFVS,0.0482
same,area with substrate ENLYFWS,0.0623
same,area with substrate ENLYFYS,0.0512
K100V,area with substrate ENLYFAS,0.0515
same,area with substrate ENLYFCS,0.0235
same,area with substrate ENLYFES,0.0763
same,area with substrate ENLYFFS,0.0612
same,area with substrate ENLYFHS,0.0533
same,area with substrate ENLYFIS,0.0572
same,area with substrate ENLYFKS,0.0907
same,area with substrate ENLYFLS,0.0465
same,area with substrate ENLYFMS,0.0682
same,area with substrate ENLYFPS,0.0635
same,area with substrate ENLYFRS,0.0581
same,area with substrate ENLYFSS,0.0597
same,area with substrate ENLYFTS,0.0492
same,area with substrate ENLYFVS,0.0478
same,area with substrate ENLYFWS,0.0534
R102C,area with substrate ENLYFAS,0.0721
same,area with substrate ENLYFCS,0.0493
same,area with substrate ENLYFFS,0.0592
same,area with substrate ENLYFGS,0.041
same,area with substrate ENLYFIS,0.0515
same,area with substrate ENLYFMS,0.0529
same,area with substrate ENLYFPS,0.0588
same,area with substrate ENLYFRS,0.0489
same,area with substrate ENLYFSS,0.0345
same,area with substrate ENLYFTS,0.0507
same,area with substrate ENLYFVS,0.0544
same,area with substrate ENLYFWS,0.0441
R102T,area with substrate ENLYFAS,0.0633
same,area with substrate ENLYFCS,0.044
same,area with substrate ENLYFES,0.0517
same,area with substrate ENLYFFS,0.0744
same,area with substrate ENLYFGS,0.054
same,area with substrate ENLYFIS,0.049
same,area with substrate ENLYFKS,0.0601
same,area with substrate ENLYFLS,0.05
same,area with substrate ENLYFMS,0.0258
same,area with substrate ENLYFPS,0.0566
same,area with substrate ENLYFRS,0.028
same,area with substrate ENLYFTS,0.0527
same,area with substrate ENLYFWS,0.0543
E103L,area with substrate ENLYFAS,0.0626
same,area with substrate ENLYFDS,0.0661
same,area with substrate ENLYFES,0.143
same,area with substrate ENLYFGS,0.059
same,area with substrate ENLYFHS,0.0907
same,area with substrate ENLYFIS,0.0565
same,area with substrate ENLYFMS,0.0587
same,area with substrate ENLYFNS,0.074
same,area with substrate ENLYFPS,0.0541
same,area with substrate ENLYFTS,0.0607

# Reference: the supplement of paper PMC12217912
